Test results reported in the supplement of paper PMC8728848.
The other results are listed elsewhere or left out.

What was measured:
Assay in all cases: glycan array binding signal (z-score within array); higher = stronger binding
Details in all cases: glycan notation: IUPAC condensed, linker removed
[1] = molecular target: Gal(b1-3)GalNAc(b1-3)Gal
Outline: (§1)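 Negative Z-scores can be read as non-binding. The Z-score is calculated within each array and then averaged across arrays of one protein sequence at different concentrations or buffers and across linkers. Arrays, 3228 in all, were curated from the Consortium for Functional Glycomics database and kept only where the protein sequence was available.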

[2] = molecular target: Gal(b1-3)GalNAc(b1-3)Gal(a1-4)Gal(b1-4)Glc
Outline: as §1

[3] = molecular target: Gal(b1-3)GalNAc(b1-4)Gal(b1-4)Glc
Outline: as §1

[4] = molecular target: Gal(b1-3)GalNAc(b1-4)[Neu5Ac(a2-3)]Gal(b1-4)Glc
Outline: as §1

[5] = molecular target: Gal(b1-3)GlcNAc
Outline: as §1

[6] = molecular target: Gal(b1-3)GlcNAc(a1-3)Gal(b1-4)GlcNAc
Outline: as §1

[7] = molecular target: Gal(b1-3)GlcNAc(a1-6)Gal(b1-4)GlcNAc
Outline: as §1

[8] = molecular target: Gal(b1-3)GlcNAc(b1-2)Man
Outline: as §1

[9] = molecular target: Gal(b1-3)GlcNAc(b1-2)Man(a1-3)[Gal(b1-3)GlcNAc(b1-2)Man(a1-6)]Man(b1-4)GlcNAc(b1-4)GlcNAc
Outline: as §1

[10] = molecular target: Gal(b1-3)GlcNAc(b1-2)Man(a1-3)[Gal(b1-3)GlcNAc(b1-2)Man(a1-6)]Man(b1-4)GlcNAc(b1-4)[Fuc(a1-6)]GlcNAc
Outline: as §1

[11] = molecular target: Gal(b1-3)GlcNAc(b1-2)Man(a1-3)[GlcNAc(b1-4)][Gal(b1-3)GlcNAc(b1-2)Man(a1-6)]Man(b1-4)GlcNAc(b1-4)GlcNAc
Outline: as §1

[12] = molecular target: Gal(b1-3)GlcNAc(b1-2)[Gal(b1-3)GlcNAc(b1-6)]Man(a1-6)[Gal(b1-3)GlcNAc(b1-2)Man(a1-3)]Man(b1-4)GlcNAc(b1-4)GlcNAc
Outline: as §1

[13] = molecular target: Gal(b1-3)GlcNAc(b1-3)Gal(b1-3)GlcNAc
Outline: as §1

[14] = molecular target: Gal(b1-3)GlcNAc(b1-3)Gal(b1-4)Glc
Outline: as §1

[15] = molecular target: Gal(b1-3)GlcNAc(b1-3)Gal(b1-4)GlcNAc
Outline: as §1

[16] = molecular target: Gal(b1-3)GlcNAc(b1-3)Gal(b1-4)GlcNAc(b1-2)Man(a1-3)[Gal(b1-3)GlcNAc(b1-3)Gal(b1-4)GlcNAc(b1-2)Man(a1-6)]Man(b1-4)GlcNAc(b1-4)GlcNAc
Outline: as §1

[17] = molecular target: Gal(b1-3)GlcNAc(b1-3)Gal(b1-4)GlcNAc(b1-2)[Gal(b1-3)GlcNAc(b1-3)Gal(b1-4)GlcNAc(b1-6)]Man(a1-6)[Gal(b1-3)GlcNAc(b1-3)Gal(b1-4)GlcNAc(b1-2)Man(a1-3)]Man(b1-4)GlcNAc(b1-4)[Fuc(a1-6)]GlcNAc
Outline: as §1

[18] = molecular target: Gal(b1-3)GlcNAc(b1-3)Gal(b1-4)GlcNAc(b1-3)Gal(b1-4)GlcNAc(b1-2)[Gal(b1-3)GlcNAc(b1-3)Gal(b1-4)GlcNAc(b1-3)Gal(b1-4)GlcNAc(b1-6)]Man(a1-6)[Gal(b1-3)GlcNAc(b1-3)Gal(b1-4)GlcNAc(b1-3)Gal(b1-4)GlcNAc(b1-2)Man(a1-3)]Man(b1-4)GlcNAc(b1-4)[Fuc(a1-6)]GlcNAc
Outline: as §1

[19] = molecular target: Gal(b1-3)GlcNAc(b1-3)Gal(b1-4)GlcNAc(b1-6)[Gal(b1-3)GlcNAc(b1-3)]Gal(b1-4)Glc
Outline: as §1

[20] = molecular target: Gal(b1-3)GlcNAc(b1-3)Gal(b1-4)[Fuc(a1-3)]GlcNAc
Outline: as §1

[21] = molecular target: Gal(b1-3)GlcNAc(b1-3)Gal(b1-4)[Fuc(a1-3)]GlcNAc(b1-6)[Gal(b1-3)GlcNAc(b1-3)]Gal(b1-4)Glc
Outline: as §1

[22] = molecular target: Gal(b1-3)GlcNAc(b1-3)GalNAc
Outline: as §1

[23] = molecular target: Gal(b1-3)GlcNAc(b1-6)Gal(b1-4)GlcNAc
Outline: as §1

[24] = molecular target: Gal(b1-3)GlcNAc(b1-6)GalNAc
Outline: as §1

[25] = molecular target: Gal(b1-3)GlcNAc(b1-6)[Gal(b1-3)]GalNAc
Outline: as §1

[26] = molecular target: Gal(b1-3)GlcNAc6S
Outline: as §1

[27] = molecular target: Gal(b1-3)[Fuc(a1-4)]GlcNAc
Outline: as §1

[28] = molecular target: Gal(b1-3)[Fuc(a1-4)]GlcNAc(b1-2)Man
Outline: as §1

[29] = molecular target: Gal(b1-3)[Fuc(a1-4)]GlcNAc(b1-2)Man(a1-3)[Gal(b1-3)[Fuc(a1-4)]GlcNAc(b1-2)Man(a1-6)]Man(b1-4)GlcNAc(b1-4)GlcNAc
Outline: as §1

[30] = molecular target: Gal(b1-3)[Fuc(a1-4)]GlcNAc(b1-2)Man(a1-3)[Gal(b1-3)[Fuc(a1-4)]GlcNAc(b1-2)Man(a1-6)]Man(b1-4)GlcNAc(b1-4)[Fuc(a1-6)]GlcNAc
Outline: as §1

B1: Siglec-F (Mus musculus), Q920G3 (protein)
chain: MRWAWLLPLLWAGCLATDGYSLSVTGSVTVQEGLCVFVACQVQYPNSKGPVFGYWFREGANIFSGSPVATNDPQRSVLKEAQGRFYLMGKENSHNCSLDIRDAQKIDTGTYFFRLDGSVKYSFQKSMLSVLVIALTEVPNIQVTSTLVSGNSTKLLCSVPWACEQGTPPIFSWMSSALTSLGHRTTLSSELNLTPRPQDNGTNLTCQVNLPGTGVTVERTQQLSVIYAPQKMTIRVSWGDDTGTKVLQSGASLQIQEGESLSLVCMADSNPPAVLSWERPTQKPFQLSTPAELQLPRAELEDQGKYICQAQNSQGAQTASVSLSIRSLLQLLGPSCSFEGQGLHCSCSSRAWPAPSLRWRLGEGVLEGNSSNGSFTVKSSSAGQWANSSLILSMEFSSNHRLSCEAWSDNRVQRATILLVSGPKVSQAGKSETSRGTVLGAIWGAGLMALLAVCLCLIFFTVKVLRKKSALKVAATKGNHLAKNPASTINSASITSSNIALGYPIQGHLNEPGSQTQKEQPPLATVPDTQKDEPELHYASLSFQGPMPPKPQNTEAMKSVYTEIKIHKC
glycan array binding signal (z-score) [1]: -0.136
glycan array binding signal (z-score) [2]: -0.114
glycan array binding signal (z-score) [3]: -0.124
glycan array binding signal (z-score) [4]: -0.109
glycan array binding signal (z-score) [5]: -0.12
glycan array binding signal (z-score) [6]: -0.133
glycan array binding signal (z-score) [7]: -0.057
glycan array binding signal (z-score) [8]: -0.125
glycan array binding signal (z-score) [9]: -0.056
glycan array binding signal (z-score) [10]: -0.082
glycan array binding signal (z-score) [11]: 0.011
glycan array binding signal (z-score) [12]: -0.01
glycan array binding signal (z-score) [13]: -0.113
glycan array binding signal (z-score) [14]: -0.13
glycan array binding signal (z-score) [15]: -0.132
glycan array binding signal (z-score) [16]: -0.01
glycan array binding signal (z-score) [17]: 0.257
glycan array binding signal (z-score) [18]: -0.038
glycan array binding signal (z-score) [19]: -0.117
glycan array binding signal (z-score) [20]: -0.154
glycan array binding signal (z-score) [21]: -0.114
glycan array binding signal (z-score) [22]: -0.11
glycan array binding signal (z-score) [23]: -0.106
glycan array binding signal (z-score) [24]: -0.164
glycan array binding signal (z-score) [25]: -0.149
glycan array binding signal (z-score) [26]: -0.159
glycan array binding signal (z-score) [27]: -0.128
glycan array binding signal (z-score) [28]: -0.04
glycan array binding signal (z-score) [29]: -0.083
glycan array binding signal (z-score) [30]: -0.093
